One assay relates to CMYC G4. In words: Circular dichroism spectra, CMYC G4. Type of assay: binding. The conditions noted are these: 100 µM GA, 10 µM CMYC G4, 25 °C. On the procedure: (§1) G4-oligonucleotides listed in Supplementary Table S3 were purchased from Integrated DNA Technologies (Clareville, IA, USA). All of them were dissolved in G4s buffer (10 mM potassium phosphate, 100 mM potassium chloride at pH 7.0), heated at 95 °C for 10 min, slowly cooled to RT, and stored at 4 °C.
(§2) CD spectra were recorded at 25 °C on a JASCO 715 CD spectropolarimeter in G4s buffer conditions (10 mM potassium phosphate buffer containing 100 mM potassium chloride at pH 7.0). The concentration of the prefolded G4 DNA was 10 μM, and GA was added at 100 μM and incubated overnight to register the new spectrum. The used wavelength range was 230–700 nm with 100 nm/min as scan speed. The cuvette path length was 0.1 cm, and three accumulation spectra were averaged for each measurement. The G4-oligonucleotides used in the current study are listed in Supplementary Table S3.
On the technique in general: Circular dichroism is the unequal absorption of left and right circularly polarised light.

In a further assay the test system is 5′ETS G4. The assay is described as follows: Circular dichroism spectra, 5′ETS G4. Format: binding. The note with it: 100 µM GA, 10 µM 5′ETS G4, 25 °C. On the procedure: as §1, §2

SMILES strings stand for the structures.

On to `O=C(O)c1cc(O)c(O)c(O)c1` [Gallic acid, 3,4,5-trihydroxybenzoic acid], for which the “change of CD spectrum” value was “intensity of the positive CD band of both 5′ETS and CMYC G4s decreased” in the assay on CMYC G4; “intensity of the positive CD band of both 5′ETS and CMYC G4s decreased” in the assay with 5′ETS G4.
